Experimental findings from the supplement of paper PMC4604168 (melanoma cell lines) are described below.

The other results are listed elsewhere or left out. Many values rest on one well or one pass, so single values are uncertain.
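Also: cells treated in 1,536-well plates, then fixed and DAPI-stained, with nuclei counted from automated high-throughput microscope images.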

The assay concerns IST-MEL1. Kind of assay: cell count relative to DMSO control; melanoma cells; higher = more viable cells. The note with it: library dose: standard library concentration; 72 h.
Compound `CC[C@]1(O)C[C@H]2CN(CCc3c([nH]c4ccccc34)[C@@](C(=O)OC)(c3cc4c(cc3OC)N(C=O)[C@H]3[C@@](O)(C(=O)OC)[C@H](OC(C)=O)[C@]5(CC)C=CCN6CC[C@]43[C@@H]65)C2)C1` [vincristine] + COc1ccc2c(c1)CCC1C2CCC2(C)C(NCCCCCCN3C(=O)C=CC3=O)CCC12 [U73122] (first compound 0.0005 µM, partner dose 2 µM) showed a cell count of 104%.

Consider `Cc1cc(Nc2cc(N3CCN(C)CC3)nc(Sc3ccc(NC(=O)C4CC4)cc3)n2)n[nH]1` [Tozasertib] + N#Cc1c(O)c2c(-c3ccc(-c4ccccc4O)cc3)csc2[nH]c1=O [A769662] (first compound 0.03 µM, partner dose 10 µM), for which the cell count worked out at 79.3%.

Compound `Cc1cc(Nc2cc(N3CCN(C)CC3)nc(Sc3ccc(NC(=O)C4CC4)cc3)n2)n[nH]1` [Tozasertib] + Cn1cncc1[C@@](N)(c1ccc(Cl)cc1)c1ccc2c(c1)c(-c1cccc(Cl)c1)cc(=O)n2C [tipifarnib] (first compound 0.03 µM, partner dose 0.05 µM) yielded a cell count of 86.3%.

`Cc1cc(Nc2cc(N3CCN(C)CC3)nc(Sc3ccc(NC(=O)C4CC4)cc3)n2)n[nH]1` [Tozasertib] + C#Cc1cccc(Nc2ncnc3cc(OCCOC)c(OCCOC)cc23)c1 [erlotinib] (first compound 0.03 µM, partner dose 4 µM) yielded a cell count of 97.6%.

`Cc1cc(Nc2cc(N3CCN(C)CC3)nc(Sc3ccc(NC(=O)C4CC4)cc3)n2)n[nH]1` [Tozasertib] + COc1cc(N2CCC(N3CCN(C)CC3)CC2)ccc1Nc1ncc(Cl)c(Nc2ccccc2S(=O)(=O)C(C)C)n1 [NVP-TAE684] (first compound 0.03 µM, partner dose 0.4 µM) came in with a cell count of 93.7%.
